Experimental data: PMC4336329 (PLoS ONE, 2015)
The campaign covered roughly 310,000 compounds. About 14,000 (4.5%) showed an effect of 50% or more. Effects have a minus sign here. This is one part of the list.

Target: human ether-à-go-go-related gene (hERG) potassium channel (human, UniProt Q12809)
Experiment: primary screen, population patch clamp on CHO cells stably expressing hERG
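Further: peak tail current of the secondary pulse compared with the same well before compound.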

human ether-à-go-go-related gene (hERG) potassium channel, sequence (Q12809 whole entry, looked up): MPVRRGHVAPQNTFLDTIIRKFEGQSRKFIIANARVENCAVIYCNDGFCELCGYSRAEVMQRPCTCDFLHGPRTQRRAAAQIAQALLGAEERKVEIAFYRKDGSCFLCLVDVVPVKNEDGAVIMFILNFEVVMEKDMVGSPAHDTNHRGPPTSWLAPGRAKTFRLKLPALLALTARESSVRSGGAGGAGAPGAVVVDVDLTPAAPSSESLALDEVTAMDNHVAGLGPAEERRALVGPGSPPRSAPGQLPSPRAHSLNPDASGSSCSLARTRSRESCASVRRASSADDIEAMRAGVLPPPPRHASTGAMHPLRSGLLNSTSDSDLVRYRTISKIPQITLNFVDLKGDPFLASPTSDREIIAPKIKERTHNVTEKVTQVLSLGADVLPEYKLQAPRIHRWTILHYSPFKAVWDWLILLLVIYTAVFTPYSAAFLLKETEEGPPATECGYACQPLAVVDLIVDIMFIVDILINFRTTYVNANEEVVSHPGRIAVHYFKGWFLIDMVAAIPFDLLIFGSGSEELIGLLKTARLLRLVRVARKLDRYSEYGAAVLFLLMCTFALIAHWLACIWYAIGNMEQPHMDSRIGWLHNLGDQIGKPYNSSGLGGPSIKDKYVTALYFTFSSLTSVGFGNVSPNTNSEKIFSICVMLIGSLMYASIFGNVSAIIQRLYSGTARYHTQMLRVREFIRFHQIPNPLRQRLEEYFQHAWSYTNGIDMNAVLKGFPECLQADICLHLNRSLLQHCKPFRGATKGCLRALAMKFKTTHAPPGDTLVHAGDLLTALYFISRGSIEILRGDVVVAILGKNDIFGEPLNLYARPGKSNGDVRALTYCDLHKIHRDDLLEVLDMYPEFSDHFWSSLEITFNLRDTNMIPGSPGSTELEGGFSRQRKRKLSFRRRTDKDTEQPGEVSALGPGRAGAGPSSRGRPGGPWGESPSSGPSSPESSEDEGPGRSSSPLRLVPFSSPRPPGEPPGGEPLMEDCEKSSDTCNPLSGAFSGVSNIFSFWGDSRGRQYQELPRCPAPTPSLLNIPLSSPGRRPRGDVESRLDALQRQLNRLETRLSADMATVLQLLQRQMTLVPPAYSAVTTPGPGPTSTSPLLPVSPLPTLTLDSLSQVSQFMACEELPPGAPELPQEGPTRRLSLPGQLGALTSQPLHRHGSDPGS

| Structure (SMILES) | hERG current change (%, negative = inhibition) at 10uM [%] |
| --- | --- |
| CCOC(=O)c1c(NC(=O)N/N=C/c2ccc(O)c(OC)c2)sc(C(C)=O)c1C | 12.4 |
| O=C(Nc1nnc(-c2ccncc2)o1)C1CCCCC1 | -1.8 |
| CCCC(=O)Nc1c(C(=O)OCC)[nH]c2ccccc12 | 6.02 |
| O=C(C(c1ccccc1)c1ccccc1)N1CC[C@@]2(O)CCCC[C@H]2C1 | -0.742 |
| Cc1nc2ccccc2c2oc(C(=O)NCCN3CCN(C)CC3)cc12 | 12.4 |
| COc1ccc(N2C(=O)CC(Sc3nc(C)c4c(n3)CCCC4)C2=O)cc1 (stereo not shown) | -1.4 |
| CN=C(NC1CCCCC1)c1ccc([N+](=O)[O-])cc1 | 1.68 |
| Cc1c(OCC(=O)NCCCn2ccnc2)ccc2c3c(c(=O)oc12)CCC3 | -26.7 |
| COc1ccc2c(c1)-c1nc(/N=C/c3ccc(O)c(OC)c3)sc1CC2 | -7.28 |
| Cc1ccc(NC(=O)Cc2n[nH]c(=O)c3ccccc23)cc1S(=O)(=O)N1CCCCCC1 | -51.5 |
| CCOC(=O)c1c(C)nc(C)c(C(=O)OCC)c1-c1ccc(OC)cc1 | -17.5 |
| COc1ccc(N(CC(=O)NN=C2CCCCCCC2)S(=O)(=O)c2ccccc2)cc1 | -4.46 |
| Cc1snc(SCC(=O)N/N=C(\N)COc2cccc(C(F)(F)F)c2)c1C#N | -1.67 |
| Cc1cc(N)ccc1NC(=O)CN1CCCC1 | 21.2 |
| Cc1c(NC(=O)c2cnn3cccnc23)c(=O)n(-c2ccccc2)n1C | 4.45 |
| CCN1CCN(S(=O)(=O)c2cc(C(=O)O)ccc2Cl)CC1.Cl | -3.34 |
| COCC(C)n1c(SCC(=O)NC(=O)Nc2ccc3c(c2)OCCO3)nc2ccccc2c1=O (stereo not shown) | 2.16 |
| C[C@H](NC(=O)NCCc1ccccc1)C(=O)O | 7.24 |
| O=C(Cn1cnnn1)Nc1ccccc1Cc1ccccc1 | -0.266 |
| COc1ccc(C2=NOC(Cn3nc(C(=O)NCc4ccc(C)cc4)cc3-c3ccccc3)C2)cc1 (stereo not shown) | 2.68 |
| O=C(Nc1ccc(Cl)cc1)N1CCSCC1 | 14 |
| CSc1nc2c(ccc3ccccc32)o1 | 12.9 |
| Cc1cc(C=C2C(=O)N(C)C(=O)N(C)C2=O)c(C)n1-c1ccccc1 | 17.5 |
| CC(Sc1nnc(N)s1)C(=O)NCc1ccc2c(c1)OCO2 (stereo not shown) | 0.709 |
| Cc1ccc(CNC(=O)CCS(=O)(=O)c2ccc3c(c2)CC(C)N3C(=O)C2CC2)cc1 (stereo not shown) | 2.43 |
| CCCN1C(=O)C(O)(CC(=O)c2ccc3c(c2)OCCO3)c2ccccc21 (stereo not shown) | 7.24 |
| COc1cccc(CNS(=O)(=O)c2csc(C(N)=O)c2)c1 | 21.3 |
| Cc1ccc(C)c(N2C(=O)CS/C2=N\NC(=O)c2ccccc2Cl)c1 | 2.58 |

| Structure (SMILES) | hERG current change (%, negative = inhibition) at 10uM [%] |
| --- | --- |
| CC(NC(=O)c1csc2ccccc12)C1CCCO1 (stereo not shown) | -0.0925 |
| CCNC(=S)NNC(=O)c1ccccc1OC(F)F | -4.17 |
| Cc1cccc2nc(CSc3nc4ccc([N+](=O)[O-])cc4[nH]3)c(Br)n12 | -14 |
| CCC1(C)N(O)C(C)(C)C(c2ccc(OC)cc2)=[N+]1[O-] (stereo not shown) | 11.6 |
| CN(C(=O)c1ccc(NC(=O)Cc2cccc(NC(=O)C3CCCN(C(=O)CCc4ccccc4)C3)c2)cc1)C1CCCC1 (stereo not shown) | 5.46 |
| CCOC(=O)[C@H]1[C@H]2COc3ccc(Cl)cc3[C@@H]2N2C(=O)CN(Cc3ccccc3)C(=O)[C@@]12C | -13.1 |
| CCCOc1ccc(C(=O)N/N=C/c2c[nH]c3ccc(Br)cc23)cc1 | 22.1 |
| O=C(COC(=O)/C=C/c1cccc(C(F)(F)F)c1)NCCN1C(=O)CSC1=O | -28.1 |
| COc1ccc(N=C2SCC(=O)N2Cc2ccccc2)cc1 | -14.5 |
| CC(=O)N(C(C)=O)S(=O)(=O)c1ccc(N=NN2CCOCC2)cc1 | 9.21 |
| COC(=O)CSc1nnc(CNS(=O)(=O)c2ccc(C)cc2)n1C | 1.97 |
| CN1CCc2c(sc(/N=C/c3c[nH]c4ccccc34)c2C#N)C1 | -1.93 |
| Cc1cc(NC(=O)CSc2nc(-c3ccc(F)cc3)cs2)no1 | 15.6 |
| Cc1ccc(-n2[nH]c(C)c(/C=N/NC(=O)c3cccc([N+](=O)[O-])c3)c2=O)cc1C | -6.6 |
| O=c1[nH]c(=S)n(-c2ccc(Br)cc2)c2ncccc12 | 12.9 |
| Cc1cc(C)c(C#N)c(SCS(=O)Cc2ccccc2)n1 (stereo not shown) | 14.8 |
| COc1ccc(OCCNS(=O)(=O)c2ccccc2)cc1 | -12.8 |
| CC(C)c1ccc(NC(=O)c2cc(S(=O)(=O)NCC3COc4ccccc4O3)ccc2F)cc1 (stereo not shown) | -1.21 |
| CC1(C)c2ccccc2N2CC(=O)N[C@@]21/C=C/C=C/c1ccccc1 | 16.1 |
| Cc1ccc(S(=O)(=O)N(C)CC(=O)Nc2ccc3c(c2)OCO3)cc1 | -10.7 |
| Cc1ccccc1-c1nc(CN(Cc2c(C)nn(C)c2C)C2CC2)c(C)o1 | 5.22 |
| CCC(CC)c1nnc(NC(=O)[C@@H](NC(=O)c2cccc(C)c2)C(C)C)s1 | 4.7 |
| Cc1cc(=O)oc2c3c(cc(OCC(=O)NCC(=O)N[C@H](C(=O)O)C(C)C)c12)OC(C)(C)CC3 | 18.4 |
| CC(=O)Nc1cccc(NC(=O)c2ccc3c(c2)CCN3S(C)(=O)=O)c1 | 20.2 |
| O=C(C1CCCO1)N1CCN(c2c3c(nc4cc(-c5ccc(F)cc5)nn24)CCC3)CC1 (stereo not shown) | -10.1 |
| CCCCCSc1nc2c(cnn2-c2ccc(F)cc2)c(=O)[nH]1 | 20 |
| CNc1c(NS(=O)(=O)c2ccc(Cl)cc2)c(=O)oc2ccccc12 | 16 |
